Single values of this set are uncertain.
Test: amyloid nucleation score relative to library mode (yeast Sup35 reporter selection) (log enrichment difference); higher = more amyloid nucleation; sequences are the first 22 residues of the Bri2 peptide extended by up to 12 random residues
Conditions: random library (experiment): 1;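 active = nucleation score significantly above 0 at FDR 0.05; inactive = not significantly above 0 or absent from output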
With EASNCFAIRHFENKFAVETLICQHYGSNSRIAIS the amyloid nucleation score was “inactive”.
With EASNCFAIRHFENKFAVETLICEQAW the amyloid nucleation score was “inactive”.
Sequence EASNCFAIRHFENKFAVETLICNGRYCGEGLRTS has an amyloid nucleation score of -0.227.
For EASNCFAIRHFENKFAVETLICTLRSLSLKLNRP, the amyloid nucleation score was “inactive”.
Work on EASNCFAIRHFENKFAVETLICVTMMRSKGDGNW yielded an amyloid nucleation score of 4.67.
EASNCFAIRHFENKFAVETLICLCLSQEISPVTR gave an amyloid nucleation score of 6.43.
In the case of EASNCFAIRHFENKFAVETLICALYVACRGLSCD, the amyloid nucleation score is reported as -0.102.
With EASNCFAIRHFENKFAVETLICVYGDLFPVSLCR the amyloid nucleation score was 3.88.
With EASNCFAIRHFENKFAVETLICYPSYSYMTFCTE the amyloid nucleation score was -0.179.
In the case of EASNCFAIRHFENKFAVETLICLWKLP, the amyloid nucleation score is reported as “inactive”.
For EASNCFAIRHFENKFAVETLICLMSGCK, the amyloid nucleation score was “inactive”.
In the case of EASNCFAIRHFENKFAVETLICIRPPHGSELLQE, the amyloid nucleation score is reported as “inactive”.
In the case of EASNCFAIRHFENKFAVETLICWDGGSCGVLQAG, the amyloid nucleation score is reported as “inactive”.
For EASNCFAIRHFENKFAVETLICREQGSLCNHSNG, the amyloid nucleation score was “inactive”.
In the case of EASNCFAIRHFENKFAVETLICGLLMSGCSYVVR, the amyloid nucleation score is reported as “inactive”.
For EASNCFAIRHFENKFAVETLICDVSDYTSVVEDA, the amyloid nucleation score was “inactive”.
With EASNCFAIRHFENKFAVETLICYEWSLR the amyloid nucleation score was “inactive”.
EASNCFAIRHFENKFAVETLICLRRTVVKGNSRW showed an amyloid nucleation score of -0.137.
With EASNCFAIRHFENKFAVETLICQSRGPGIHGDLL the amyloid nucleation score was “inactive”.
For EASNCFAIRHFENKFAVETLICFHDNGVFRKYAS, the amyloid nucleation score was “inactive”.
In the case of EASNCFAIRHFENKFAVETLICWPLERSLPRLVG, the amyloid nucleation score is reported as “inactive”.
EASNCFAIRHFENKFAVETLICQAMWDSSHVRF gave an amyloid nucleation score of 2.22.
With EASNCFAIRHFENKFAVETLICCLE the amyloid nucleation score was “inactive”.

Same assay, conditions: random library (experiment): 2
In the case of EASNCFAIRHFENKFAVETLICVVVF, the amyloid nucleation score is reported as “inactive”.
For EASNCFAIRHFENKFAVETLICIAMFTFMDKTRS, the amyloid nucleation score was “inactive”.
For EASNCFAIRHFENKFAVETLICIRHWVYFRWGFK, the amyloid nucleation score was “inactive”.
Work on EASNCFAIRHFENKFAVETLICMPCINNTLVVLG yielded an amyloid nucleation score of 4.89.
For EASNCFAIRHFENKFAVETLICFCVYYIVIVYWA, the amyloid nucleation score was “inactive”.
In the case of EASNCFAIRHFENKFAVETLICHAYLGYMCAYAA, the amyloid nucleation score is reported as “inactive”.
With EASNCFAIRHFENKFAVETLICQSCMHMMAWMNA the amyloid nucleation score was “inactive”.
Work on EASNCFAIRHFENKFAVETLICLHYNFGENSFRS yielded an amyloid nucleation score of 3.47.
For EASNCFAIRHFENKFAVETLICFRTVNTV, the amyloid nucleation score was “inactive”.
Work on EASNCFAIRHFENKFAVETLICCGRYIQRMIKVS yielded an amyloid nucleation score of -0.0392.
In the case of EASNCFAIRHFENKFAVETLICWIRLLDRSIF, the amyloid nucleation score is reported as “inactive”.

Same assay, conditions: random library (experiment): 3
With EASNCFAIRHFENKFAVETLICLISYLDNVIGTG the amyloid nucleation score was “inactive”.
In the case of EASNCFAIRHFENKFAVETLICARVVMWWGNSGA, the amyloid nucleation score is reported as “inactive”.
With EASNCFAIRHFENKFAVETLICVQARLWNIDNG the amyloid nucleation score was “inactive”.
Sequence EASNCFAIRHFENKFAVETLICQWVLFNTEGPMA has an amyloid nucleation score of -0.26.
In the case of EASNCFAIRHFENKFAVETLICWLLVTRLLYSDE, the amyloid nucleation score is reported as “inactive”.
With EASNCFAIRHFENKFAVETLICRYLSLLSTWF the amyloid nucleation score was “inactive”.
In the case of EASNCFAIRHFENKFAVETLICQQDHVKTSCVGP, the amyloid nucleation score is reported as “inactive”.
For EASNCFAIRHFENKFAVETLICRKFCRVWGEAL, the amyloid nucleation score was “inactive”.
Sequence EASNCFAIRHFENKFAVETLICLMLL has an amyloid nucleation score of 0.658.
In the case of EASNCFAIRHFENKFAVETLICDLMVYYTDEFMD, the amyloid nucleation score is reported as “inactive”.
With EASNCFAIRHFENKFAVETLICNRVYQWILGCHR the amyloid nucleation score was “inactive”.
With EASNCFAIRHFENKFAVETLICGLQAEH the amyloid nucleation score was “inactive”.
Sequence EASNCFAIRHFENKFAVETLICWSTRKAGMWKDG has an amyloid nucleation score of 2.48.
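Note: [psi-pin-] Saccharomyces cerevisiae expressing SupN fusions, induced by 100 µM Cu2SO4, selected 7 d at 30 °C without adenine and uracil, scored by deep sequencing of output versus input.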
